Measurements taken from publication PMC9911399, “Two distinct binding modes provide the RNA-binding protein RbFox with extraordinary sequence specificity”.
Where a chain is given by its changes, count along the chain named. Some of the results follow.

T1: RBFOX1 RRM RbFoxmut (Fox-RRM*) (Homo sapiens, UniProt Q9NWB1 109-208, R118D;E147R;N151S;E152T)
T1 sequence: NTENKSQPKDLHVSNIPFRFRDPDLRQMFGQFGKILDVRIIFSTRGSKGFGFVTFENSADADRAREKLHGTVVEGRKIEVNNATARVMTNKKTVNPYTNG

B1: AUGAUUA (DNA:RNA)
RNA: GGGAGACCGGAAUUCAGAUUGUCCAUGAUUAUUAAAUCCCGUCGUAGCCACCA
DNA 1: CAATCTGAATTCCGGTCTCCC
DNA 2: TGGTGGCTACGACGGGATT
B2: UCACCGU (DNA:RNA)
RNA: GGGAGACCGGAAUUCAGAUUGUCCUCACCGUUUAAAUCCCGUCGUAGCCACCA
DNA 1: CAATCTGAATTCCGGTCTCCC
DNA 2: TGGTGGCTACGACGGGATT
B3: GCGCUCU (DNA:RNA)
RNA: B2 RNA with U25G, A27G, C29U, G30C
DNA 1: CAATCTGAATTCCGGTCTCCC
DNA 2: TGGTGGCTACGACGGGATT
B4: AAUAUCA (DNA:RNA)
RNA: B1 RNA with U26A, G27U, U30C
DNA 1: CAATCTGAATTCCGGTCTCCC
DNA 2: TGGTGGCTACGACGGGATT
B5: UAUACGA (DNA:RNA)
RNA: B2 RNA with C26A, A27U, C28A, U31A
DNA 1: CAATCTGAATTCCGGTCTCCC
DNA 2: TGGTGGCTACGACGGGATT
B6: ACUCGGC (DNA:RNA)
RNA: B2 RNA with U25A, A27U, C29G, U31C
DNA 1: CAATCTGAATTCCGGTCTCCC
DNA 2: TGGTGGCTACGACGGGATT
B7: GUGGUUC (DNA:RNA)
RNA: B1 RNA with A25G, A28G, A31C
DNA 1: CAATCTGAATTCCGGTCTCCC
DNA 2: TGGTGGCTACGACGGGATT
B8: GCCACAA (DNA:RNA)
RNA: B1 RNA with A25G, U26C, G27C, U29C, U30A
DNA 1: CAATCTGAATTCCGGTCTCCC
DNA 2: TGGTGGCTACGACGGGATT
B9: UCCUGCG (DNA:RNA)
RNA: B2 RNA with A27C, C28U, C29G, G30C, U31G
DNA 1: CAATCTGAATTCCGGTCTCCC
DNA 2: TGGTGGCTACGACGGGATT

The binders below were run against T1, RBFOX1 RRM RbFoxmut (Fox-RRM*) (assay: EMSA; HiTS-Eq, 1 nM pool, 10 min; buffer printed only for the single-RNA assays: 10 mM Tris pH 7.5, 150 mM NaCl, 3.4 mM EDTA, 0.001% NP-40, 30 C). Details: tags: His6 N-terminal (pET28a); label: 5' 32P.
Summary of the method: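 Purified wild-type or mutant RbFox RRM at increasing concentrations was equilibrated with 1 nM of 5′-radiolabelled RNA carrying 7 randomized nucleotides for 10 min in 50 µL. Unbound RNA was separated by 8% native PAGE and sequenced. Relative association constants came from read-count changes of each RNA species compared with the control reaction, normalised to the cognate motif.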

Row | Binder | binding signal
1 | B1 | 0.176 KA relative to UGCAUGU
2 | B2 | 0.13 KA relative to UGCAUGU
3 | B3 | 0.0591 KA relative to UGCAUGU
4 | B4 | 0.0636 KA relative to UGCAUGU
5 | B5 | 0.0443 KA relative to UGCAUGU
6 | B6 | 0.123 KA relative to UGCAUGU
7 | B7 | 0.283 KA relative to UGCAUGU
8 | B8 | 0.0608 KA relative to UGCAUGU
9 | B9 | 0.115 KA relative to UGCAUGU
